The record followed here is PMC4336329 (PLoS ONE, 2015).

Screen size: about 310,000 compounds; about 2,200 (0.71%) showed an effect of 50% or more. The effect is printed as a negative number. Some of the results follow.

The target of this experiment is human ether-à-go-go-related gene (hERG) potassium channel (human, UniProt Q12809). Briefly: primary screen, population patch clamp on CHO cells stably expressing hERG.
Chain of human ether-à-go-go-related gene (hERG) potassium channel (Q12809 whole entry, looked up): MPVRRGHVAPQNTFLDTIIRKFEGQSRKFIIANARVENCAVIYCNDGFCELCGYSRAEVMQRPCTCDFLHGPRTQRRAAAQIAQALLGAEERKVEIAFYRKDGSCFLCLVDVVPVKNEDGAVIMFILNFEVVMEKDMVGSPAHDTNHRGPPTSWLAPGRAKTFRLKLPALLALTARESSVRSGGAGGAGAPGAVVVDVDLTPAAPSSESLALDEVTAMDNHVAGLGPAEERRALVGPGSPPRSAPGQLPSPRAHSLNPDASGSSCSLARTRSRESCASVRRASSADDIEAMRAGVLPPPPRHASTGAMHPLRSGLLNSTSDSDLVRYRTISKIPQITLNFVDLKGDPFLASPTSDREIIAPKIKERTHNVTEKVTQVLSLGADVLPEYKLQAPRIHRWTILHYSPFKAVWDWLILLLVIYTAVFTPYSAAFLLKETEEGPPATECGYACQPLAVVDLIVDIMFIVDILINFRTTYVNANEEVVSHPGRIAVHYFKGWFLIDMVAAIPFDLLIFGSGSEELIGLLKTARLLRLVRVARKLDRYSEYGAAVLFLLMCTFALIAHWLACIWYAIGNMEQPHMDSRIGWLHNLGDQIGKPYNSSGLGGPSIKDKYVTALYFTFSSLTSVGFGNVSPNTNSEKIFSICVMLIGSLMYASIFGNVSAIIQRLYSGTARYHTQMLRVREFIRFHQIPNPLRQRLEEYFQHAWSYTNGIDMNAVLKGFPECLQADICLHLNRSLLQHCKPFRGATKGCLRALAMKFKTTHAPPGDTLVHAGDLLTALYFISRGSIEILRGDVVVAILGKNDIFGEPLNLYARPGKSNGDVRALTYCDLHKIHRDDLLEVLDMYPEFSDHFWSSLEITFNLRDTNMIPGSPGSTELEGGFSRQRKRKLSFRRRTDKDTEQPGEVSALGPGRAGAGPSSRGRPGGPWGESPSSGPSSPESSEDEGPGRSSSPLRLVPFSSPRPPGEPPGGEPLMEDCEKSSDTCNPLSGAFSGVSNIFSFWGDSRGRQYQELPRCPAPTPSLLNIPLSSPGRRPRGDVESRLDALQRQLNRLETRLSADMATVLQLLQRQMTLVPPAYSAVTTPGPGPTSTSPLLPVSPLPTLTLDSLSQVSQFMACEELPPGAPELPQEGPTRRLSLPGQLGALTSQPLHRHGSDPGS
On to `O=C(CN1CCCc2ccccc21)N/N=C/c1ccccc1`, for which the “hERG current change (%, negative = inhibition) at 1uM” value is given as 7.32%.

In the case of `O=C1NC(=O)/C(=C/c2cccc3ccccc23)S1`, the “hERG current change (%, negative = inhibition) at 1uM” value is recorded as 15.1%.

Turning to `CCCC(=O)N(Cc1cc2ccccc2[nH]c1=O)c1ccccc1OC`, the “hERG current change (%, negative = inhibition) at 1uM” value is reported as 17.6%.

Turning to `COc1ccc(CCN(C(=O)c2snc(C(N)=O)c2N)C(C)C(=O)NC2CCCCC2)cc1OC` (stereo not shown), the “hERG current change (%, negative = inhibition) at 1uM” value was 14.2%.

As to `O=C(Cn1c(-c2ccccc2)noc1=O)N1CCC(Cc2ccccc2)CC1`, the “hERG current change (%, negative = inhibition) at 1uM” value was -6.11%.

As to `Cc1cc(C)n(-c2ccc(NC(=O)C3CCN(Cc4cnc(C)s4)CC3)cc2)n1`, the “hERG current change (%, negative = inhibition) at 1uM” value is reported as -2.33%.

On to `Cc1c(C(=O)Nc2cccc(S(=O)(=O)N3CCCC3)c2)oc2ccccc12`, for which the “hERG current change (%, negative = inhibition) at 1uM” value is reported as 10.5%.

`Cc1ncc(CO)c(/C=N/NC(=O)c2ccccc2Br)c1O`: the “hERG current change (%, negative = inhibition) at 1uM” value is recorded as 14.9%.

Consider `C=CCn1c(N)c(C(=O)NCCC2=CCCCC2)sc1=S`, for which the “hERG current change (%, negative = inhibition) at 1uM” value was 6.87%.

Turning to `CC(C)c1ccc(OCc2nc(-c3ccccn3)no2)c(Br)c1`, the “hERG current change (%, negative = inhibition) at 1uM” value was 1.9%.

For the molecule `COCCn1c(SCC(=O)Nc2ccccc2OC)nc2ccccc21`, the “hERG current change (%, negative = inhibition) at 1uM” value was -1.43%.

For `CS(=O)(=O)N1CCN(C(=O)c2cc(-c3cccs3)nc3ccccc23)CC1`, the “hERG current change (%, negative = inhibition) at 1uM” value is recorded as -2.31%.

For the molecule `Cn1cc([N+](=O)[O-])c(C(=O)Nc2cc(Oc3cccnc3)cc([N+](=O)[O-])c2)n1`, the “hERG current change (%, negative = inhibition) at 1uM” value worked out at 18.6%.

On to `Cc1ccc(C)c(CSc2nnc(-c3cccnc3)o2)c1`, for which the “hERG current change (%, negative = inhibition) at 1uM” value is listed as 2.8%.

In the case of `O=C1c2ccccc2C(=O)N1CCOc1ccccc1Br`, the “hERG current change (%, negative = inhibition) at 1uM” value stood at 15.1%.

As to `COc1cc(C2NC(=O)NC(C)=C2C(=O)OCc2ccc(C)cc2)cc(OC)c1OC` (stereo not shown), the “hERG current change (%, negative = inhibition) at 1uM” value was 8.86%.

Consider `Cc1cccc(C(=O)N(Cc2nc3ccccc3c(=O)[nH]2)C2CCCC2)c1`, for which the “hERG current change (%, negative = inhibition) at 1uM” value was determined as 7.7%.

With `Cc1ccc(NC(=S)N2CCN(c3ccccn3)CC2)c(C)c1`, the “hERG current change (%, negative = inhibition) at 1uM” value is recorded as 12.7%.

Regarding `CCOc1cccc(C(=O)Nc2ccc3[nH]ncc3c2)c1`, the “hERG current change (%, negative = inhibition) at 1uM” value amounted to 21.7%.

As to `CCc1c(C)nc(N2CCOCC2)[nH]c1=O`, the “hERG current change (%, negative = inhibition) at 1uM” value is given as -9.74%.

In the case of `Cc1ccc(OCCn2c(CCCO)nc3ccccc32)cc1`, the “hERG current change (%, negative = inhibition) at 1uM” value came out at 4.73%.

With `CC(=O)Nc1ccc(C(=S)NCc2ccco2)cc1`, the “hERG current change (%, negative = inhibition) at 1uM” value was 6.64%.

Consider `COC(=O)[C@@]12CCCN1[C@H](c1ccc(-c3ccc4c(c3)OCO4)c(OC)c1)[C@H]1C(=O)N(C)C(=O)[C@H]12.O=C(O)C(F)(F)F`, for which the “hERG current change (%, negative = inhibition) at 1uM” value worked out at 9.32%.

On to `Cc1nc(C)c(-c2csc(Nc3ccccn3)n2)s1`, for which the “hERG current change (%, negative = inhibition) at 1uM” value worked out at 13.8%.

As for `COc1ccc(-c2nc(CS(=O)CC(=O)N3CCOCC3)c(C)o2)cc1OC` (stereo not shown), the “hERG current change (%, negative = inhibition) at 1uM” value was 14.7%.
